Among all 46,000 compounds or so, about 60 (0.1%) were called active. Inconclusive results (about 3%) are left out. The call rests on the fitted dose curve; in most records, active means well fitted inhibition curve with a large enough effect; inconclusive means small, poorly fitted or top-dose-only effect; inactive means no such curve, though single readings can be large or run the other way. Some of the results follow.
test: Primary qHTS assay for Inhibitors of ovarian cancer metastasis using an organotypic tumor microenvironment (TME) model.; further: nearly all actives have a fitted effect of over 65% in size;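 on activity change, negative = inhibition: plate controls were DMSO wells for no effect and tomatine positive control wells for full effect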; conditions: SKOV3ip1-GFP adhesion/invasion on 3D omental model, fluorescence; series mostly up to 45.8 µM; activity change, negative = inhibition: at the top concentration
Summary of the method: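 A 3D layer of primary human omental fibroblasts, mesothelial cells, fibronectin and collagen I, grown 48 hr, received SKOV3ip1-GFP cells in serum-free medium plus compounds at 0.36-46 umol/L. After 2 hr RT and 16 hr 37 C, fixed adherent GFP cells were counted; normalized to DMSO and tomatine.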

Activity change, negative = inhibition, inactive:
Cc1ccc(NC(=O)Cn2cc3c(n2)CCCCC3)cc1 -2.62%
COC(=O)c1c(Oc2ccc(C(C)=O)cc2)nnc(-c2ccccc2)c1-c1ccccc1 0.592%
COc1ccccc1CNC(=O)CN1C(=O)CSc2ccc(S(=O)(=O)N3CCCCC3)cc21 -0.597%
CCCc1c(C)c2ccc(O)c(CN3CCN(c4ccc(F)cc4)CC3)c2oc1=O -19.5%
CC1=C(C(=O)N2CCN(c3cccc(C(F)(F)F)c3)CC2)C2(CCCCC2)OC1=O -20.3%
CCOC(=O)c1noc2nc(C)n(CC(=O)Nc3ccccc3F)c(=O)c12 -1.19%
Cc1ccc(C)c(Nc2nc3c(S(=O)(=O)c4ccc(C(C)C)cc4)nnn3c3ccsc23)c1 6.31%
O=C(Nc1ccc(Cl)cc1Cl)c1cc(S(=O)(=O)N2CCc3ccccc32)ccc1F 13.4%
Cc1ccc(S(=O)(=O)Nc2cccc(-c3cn4cccc(C)c4n3)c2)cc1 1.51%
COc1ccc(OC)c2sc(N3CCN(C(=O)C4CC4)CC3)nc12 1.5%
COc1ccc(S(=O)(=O)n2ccnc2)cc1C(C)(C)C 20.8%
Cc1ccccc1CCNC(=O)c1ccc2c(c1)c(C)c(C)n2Cc1ccccc1 -6.09%
CCOc1ccc(CNC(=O)CSc2nnc(C)c3c(C)n(-c4ccccc4)nc23)cc1 -12.7%
CC(C)CN(CCCNC(=O)CN1C(=O)CSc2ccc(S(=O)(=O)N3CCOCC3)cc21)CC(C)C -6.88%
CCOc1ccc(NC(=O)CC2C(=O)OCCN2CC)cc1 (stereo unspecified) 1.32%
COc1ccc(OC)c(-n2cnc3cc(C(=O)NC4CCCCCC4)ccc32)c1 2.03%
CS(=O)(=O)N(CC(=O)NCCc1ccccc1)c1cc(C(F)(F)F)ccc1Cl 4.9%
Cc1cccc(-c2nnn3c2nc(NCCc2ccc(S(N)(=O)=O)cc2)c2cc(Cl)ccc23)c1 4.74%
COc1ccc(-c2cc(C)nc3c(-c4ccc(OC)c(OC)c4)c(C)nn23)cc1 -14.7%
COc1ccc(N2CCN(C(=O)c3cc4ccc5cccnc5c4[nH]3)CC2)cc1 -3.55%
Cc1cccc(Oc2nc3c(c(=O)n(C)c(=O)n3C)n2C)c1 -10.5%
COc1ccc(OC)c(CCNc2ncnc3onc(-c4ccc(F)cc4)c23)c1 0.761%
CC(NC(=O)c1ccccc1NC(=O)c1nsc2ccccc12)c1ccccc1 (stereo unspecified) 3.37%
CNC(=O)c1cc(Nc2nnc(-c3ccc(O)cc3)c3ccccc23)ccc1OC 2.45%
Fc1cc(Br)ccc1Nc1c2c(nc3nc(-c4cccs4)nn13)CCCC2 -26.9%
O=C1CCCc2cc(S(=O)(=O)NCC3CCC(C(=O)Nc4ccccc4F)CC3)ccc2N1 (stereo unspecified) 18%
CCCCOc1ccc(C(=O)N2CCN(CCc3ccccn3)CC2)cc1 1.84%
CC(=O)c1ccc(NC(=O)C2=CC(c3ccc4c(c3)OCO4)=NS(=O)(=O)N2C)cc1 18.2%
COC(=O)c1ccc(OC)c(Cn2c(=O)n(Cc3ccccc3)c(=O)c3c2c2cc(OC)ccc2n3C)c1 0.627%
Cc1ccc(C(=O)Nc2ccc3oc(-c4ccc(C(C)(C)C)cc4)nc3c2)cc1 0.0841%
Cc1ccc(CNC(=O)CCCCCn2c(=O)c3sccc3n(CC(=O)N(C)c3ccccc3)c2=O)cc1 2.04%
Cc1ccc(-c2ccc(CCC(=O)O)n2-c2cccc(O)c2)cc1 2.96%
O=c1n(Cc2cccc(C(F)(F)F)c2)c2ccccc2c2nc(-c3ccccc3)nn12 1.1%
COc1ccc(-c2noc(CCC(=O)NCc3ccc(C)cc3)n2)cc1 -24.8%
Cc1ccc(NS(=O)(=O)c2ccc3[nH]c(=O)ccc3c2)cc1N(C)C -5.97%
Cc1ccc(NC(=O)c2cc(C)nc3c2c(C)nn3-c2cccc(Cl)c2C)c(C)c1 -15.1%
Cc1cccc(Cn2c(=O)n(CCc3ccccc3)c(=O)c3c(C)c(C)sc32)c1 9.08%
CCc1ccc2oc(C(=O)Nc3cccc(C(F)(F)F)c3)cc(=O)c2c1 -5.47%
COc1ccccc1CN1COc2ccc3c(oc(=O)c4ccccc43)c2C1 -22.2%
CCOC(=O)[C@@H](N)Cc1ccc(-c2cc(O[C@H](c3ccc(Cl)cc3-n3ccc(C)n3)C(F)(F)F)nc(N)n2)cc1 -11.7%
COc1ccc(S(=O)(=O)N2CCCCC2)cc1C(=O)Nc1cccc(C(F)(F)F)c1 28.3%
COc1ccc(/C=C/C(=O)Nc2sc3c(c2C(N)=O)CCCC3)cc1 30%
CCOC(=O)C1CCC(CN(Cc2ccc(Cl)cc2)S(=O)(=O)c2ccc(F)c(C(=O)Nc3cccc(F)c3)c2)CC1 (stereo unspecified) -0.315%
CCn1c(=O)cc(SCC(=O)NCCc2ccc(Cl)cc2)c2ccccc21 -5.37%
CCn1c(=O)c2cc(C(=O)NCCc3cc(OC)ccc3OC)sc2c2ccccc21 -3.16%

outcome, inactive:
CCN(c1ccccc1)c1ncnc2c1cnn2-c1ccc(C)cc1C
CCOC(=O)c1ccccc1NC(=O)c1cc2c(=O)oc3ccc(C)cc3c2s1
CCc1ccc(C2CC(=O)Nc3cc4c(cc32)OCO4)cc1 (stereo unspecified)
Cc1cccc(N2CCN(C(=O)c3c(C)oc4ncnc(N5CCCCC5)c34)CC2)c1C
CCc1ccccc1N1C(=O)N(Cc2ccccc2C)c2ccccc2S1(=O)=O
COc1ccccc1NC(=O)c1cnc(SCC(=O)N2CCCc3ccccc32)n(C)c1=O
CSc1ccc(-c2nc3ccc(C)cn3c2Nc2ccccc2C)cc1
O=C(NCC12CC3CC(CC(C3)C1)C2)c1cc2nc(-c3ccccc3)cc(C(F)(F)F)n2n1
CCCCCn1c(=O)[nH]c2cc(C(=O)N3CCN(c4cccc(C)c4)C(C)C3)ccc2c1=O (stereo unspecified)
COc1ccc(-c2ccc(=O)n(CC(=O)Nc3ccc(C)cc3C)n2)cc1
C#CCOc1ccc(-c2nnc(Nc3cccc(C)c3)c3ccccc23)cc1
CSc1nn(Cc2ccc(Cl)cc2)c(N(C(C)=O)C(C)=O)c1S(=O)(=O)c1ccccc1
CCn1cc(C(=O)NCc2ccccc2OC)c(=O)c2cc(S(=O)(=O)N3CCCCC3)ccc21
COc1ccccc1Nc1cc(C(=O)NC2CCCC2)c2ccccc2n1
COc1cccc2sc(=NC(=O)c3ccc(S(=O)(=O)N4CCCCC4)cc3)n(C)c12
CCOC(=O)c1cnc(NCc2ccccc2OC)c2ccccc12

Source: PubChem BioAssay AID1963576 (National Center for Advancing Translational Sciences (NCATS), 2024)
